Reference: PubChem BioAssay AID624202 (National Center for Advancing Translational Sciences (NCATS), 2012)
The whole screen tested about 380,000 compounds, of which about 4,000 (1.1%) were called active. The inconclusive results got no clear call from the source; some entries with a clear call stand among them for comparison. The call rests on the fitted dose curve; in most records, active means well fitted activation curve with a large enough effect; inconclusive means small, poorly fitted or top-dose-only effect; inactive means no such curve, though single readings can be large or run the other way. A potency beside an inconclusive call is a rough fit, not a confirmed value.

Experiment: qHTS Assay to Identify Small Molecule Activators of BRCA1 Expression; further: nearly all actives have a fitted effect of over 80% in size
Conditions: MCF7-BRCA1-FFLuc reporter, luminescence, 48 h; activation: at 46.1 µM (top of the series), scaled: vehicle 0%, 10 µM genistein 100% unless noted
Summary of the method: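 Luminescence from a BRCA1-driven firefly luciferase in MCF7 cells was the read-out, taken 15 min after substrate addition following 48 h compound exposure at 37 °C. Data were normalized to a 10 microM genistein control and DMSO vehicle.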
Potency means the concentration at half of the fitted maximal effect; tags describe the fitted curve by direction and shape.

SMILES | Potency | activation
CC(C)C(=O)Nc1cccc(NC(=O)c2cc3ccccc3o2)c1 | active: 10 µM | –
O=C(CNC(=O)c1ccco1)Nc1ccc(Cl)cc1 | active: 12.6 µM | –
CCCCCCOC(=O)/C=C/c1c(C)[nH]c(=O)[nH]c1=O | – | inactive: -8.36%
COc1cc(SC)ccc1C(=O)Nc1cc(C)ccn1 | inconclusive: 0.631 µM [activator, full curve, poor fit] | –
c1ccc(-n2cnc3ccccc32)cc1 | inconclusive: 35.5 µM [activator, single point] | –
CS(=O)c1ccc(/C=C2\C=Cc3ccccc32)cc1 (stereo unspecified) | inconclusive: 0.501 µM [activator, full curve, poor fit] | –
COc1ccc(NC(=O)Cc2c[nH]c3ccccc23)cc1S(=O)(=O)N1CCCCC1 | – | inactive: -4.5%
COc1ccc(-c2nc3ccc([N+](=O)[O-])cc3o2)cc1 | inconclusive: 2.82 µM [activator, full curve, poor fit] | –
O=c1c2ccccc2ncn1CCCOc1ccccc1[N+](=O)[O-] | inconclusive: 2 µM [activator, full curve, poor fit] | –
O=C(O)c1cccc(-c2ccc(/C=N/Nc3nn[nH]n3)o2)c1 | inconclusive: 17.8 µM [activator, partial curve, poor fit] | –
CC(=O)N1N=C(c2c(-c3ccccc3)c3cc(C)ccc3[nH]c2=O)CC1c1ccco1 (stereo unspecified) | – | inactive: -50.5%
O=C(Nc1nc2ccccc2[nH]1)C1CCCO1 (stereo unspecified) | inconclusive: 17.8 µM [activator, single point] | –
CC(C)OC(=O)Cn1cnc2ccc(Br)cc2c1=O | inconclusive: 25.1 µM [activator, single point] | –
C/C(=N\NC(=O)c1ccccc1)c1cccc(Br)c1 | active: 10 µM | –
Cc1ccc(O)c(NC(=O)c2ccc3c(c2)C(=O)N(CC(C)C)C3=O)c1 | active: 7.94 µM | –
O=C(N=C1SCC(=O)N1c1ccccc1Cl)c1ccco1 | inconclusive: 22.4 µM [activator, partial curve, poor fit] | –
O=C(N/N=C/C(Br)=C/c1ccccc1)C1CC1 | inconclusive: 11.2 µM [activator, partial curve, poor fit] | –
COc1cc(NC(=O)c2ccc(N)nc2)cc(C(=O)Nc2cccc(C(F)(F)F)c2)c1 | inconclusive: 35.5 µM [activator, single point] | –
CCOC(=O)C1(CCc2ccccc2)CCN(Cc2cc(OC)c(OC)cc2OC)CC1 | – | inactive: -19.6%
CCc1nc(-c2ccc(-c3ccc(OC)cc3)nc2OC)no1 | inconclusive: 7.08 µM [activator, partial curve, poor fit] | –
Cc1ccc(NC(=O)c2noc3c2CCCCC3)cc1 | inconclusive: 1.58 µM [activator, partial curve, poor fit] | –
O=c1c2ccccc2nnn1CSc1nnc(-c2ccc3c(c2)OCO3)o1 | inconclusive: 3.16 µM [activator, partial curve, poor fit] | –
Fc1ccc2nc(Nc3ccccc3)sc2c1 | inconclusive: 17.8 µM [activator, single point] | –

SMILES | Potency | activation
C=CCOc1ccc(/C(O)=C2/C(=O)C(=O)N(CCCn3ccnc3)C2c2cccs2)cc1 (stereo unspecified) | inconclusive: 35.5 µM [activator, single point] | –
Clc1nc(-c2ccccc2)c2ccccc2n1 | – | inactive: 1.46%
Cc1c(NS(C)(=O)=O)cccc1-c1nc2cccnc2s1 | inconclusive: 10 µM [activator, partial curve, poor fit] | –
CCC(C)NC(=O)c1cn(CC)c2ccc(S(=O)(=O)N3CCCCCC3)cc2c1=O (stereo unspecified) | – | inactive: -27.7%
O=C(CCn1nnc2ccccc21)N1CCC(O)(c2cccc(F)c2)CC1 | – | inactive: 0%
COc1ccc(CNc2cc(C)ccn2)cc1 | inconclusive: 35.5 µM [activator, single point] | –
Cc1ccc(S(=O)(=O)N2C[C@@H]3[C@H]4CC[C@H](C4)[C@@H]3[C@@H](C)[C@H]2c2ccco2)cc1 | – | inactive: -28.3%
O=C(CSc1nnc(-c2ccccc2F)o1)N1CCCC1 | inconclusive: 3.55 µM [activator, partial curve, poor fit] | –
Clc1cccc(N/N=C/c2ccncc2)c1 | inconclusive: 15.8 µM [activator, partial curve, poor fit] | –
CC1S/C(=N/N=C/c2ccco2)N(Cc2ccccc2)C1=O (stereo unspecified) | inconclusive: 14.1 µM [activator, partial curve, poor fit] | –
FC(F)C(F)(F)Oc1cccc(Nc2nccn3c(-c4ccc5ccccc5c4)cnc23)c1 | – | inactive: 0%
CCCCc1c(C)[nH]c2nc3ccccc3n2c1=O | inconclusive: 15.8 µM [activator, single point] | –
CC(C)(C)OC(=O)NCCCCCNC(=O)c1ncn(Cc2ccccc2)c1C(=O)NCCCCCNC(=O)OC(C)(C)C | – | inactive: -25.5%
OC[C@@H]1CCC[C@@H](n2cnc3c(=S)nc[nH]c32)O1 | – | inactive: -11.6%
O=C1C(=Cc2cn(-c3ccccc3)nc2-c2ccc(OCc3ccccc3F)cc2)SC(=S)N1CCS(=O)(=O)O | – | inactive: -48.5%
CC(OC(=O)CNC(=O)c1ccccc1F)C(=O)Nc1nc(-c2ccccc2)cs1 (stereo unspecified) | active: 6.31 µM | –
O=S(=O)(Cc1cc(-c2ccccc2Cl)no1)c1ccccc1 | inconclusive: 31.6 µM [activator, single point] | –
C=CCn1c(SCC(=O)N2CCOCC2)nc2sc3c(c2c1=O)CCCC3 | – | inactive: -108%
COc1ccc([C@H]2CC(=O)c3c(O)cc(O)cc3O2)cc1O | inconclusive: 35.5 µM [activator, single point] | –
COc1cc(OC)c(N(C)S(=O)(=O)c2cccc(C(=O)OCC(=O)c3c[nH]c4ccccc34)c2)cc1Cl | – | inactive: -66.4%
COc1ccccc1-c1noc(-c2ccc(NCC3CCCO3)c([N+](=O)[O-])c2)n1 (stereo unspecified) | – | inactive: 24.3%
CC(=O)COC(=O)c1ccc2noc(-c3ccccc3)c2c1 | inconclusive: 14.1 µM [activator, partial curve, poor fit] | –
O=C(Nc1ccccc1)OCCOc1ccccc1 | inconclusive: 10 µM [activator, partial curve, poor fit] | –
